This passage reports binding results from article PMC9765665.

By UniProt entry, the sequences of proteins in these tests, tags left out.
UniProt P03129: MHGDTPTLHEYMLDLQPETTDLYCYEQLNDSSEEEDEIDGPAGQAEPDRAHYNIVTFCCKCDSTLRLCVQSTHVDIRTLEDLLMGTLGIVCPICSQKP
UniProt P06788: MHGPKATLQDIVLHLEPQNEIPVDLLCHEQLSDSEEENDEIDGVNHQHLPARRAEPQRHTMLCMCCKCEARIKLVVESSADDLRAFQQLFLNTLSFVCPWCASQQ
UniProt Q5T4S7: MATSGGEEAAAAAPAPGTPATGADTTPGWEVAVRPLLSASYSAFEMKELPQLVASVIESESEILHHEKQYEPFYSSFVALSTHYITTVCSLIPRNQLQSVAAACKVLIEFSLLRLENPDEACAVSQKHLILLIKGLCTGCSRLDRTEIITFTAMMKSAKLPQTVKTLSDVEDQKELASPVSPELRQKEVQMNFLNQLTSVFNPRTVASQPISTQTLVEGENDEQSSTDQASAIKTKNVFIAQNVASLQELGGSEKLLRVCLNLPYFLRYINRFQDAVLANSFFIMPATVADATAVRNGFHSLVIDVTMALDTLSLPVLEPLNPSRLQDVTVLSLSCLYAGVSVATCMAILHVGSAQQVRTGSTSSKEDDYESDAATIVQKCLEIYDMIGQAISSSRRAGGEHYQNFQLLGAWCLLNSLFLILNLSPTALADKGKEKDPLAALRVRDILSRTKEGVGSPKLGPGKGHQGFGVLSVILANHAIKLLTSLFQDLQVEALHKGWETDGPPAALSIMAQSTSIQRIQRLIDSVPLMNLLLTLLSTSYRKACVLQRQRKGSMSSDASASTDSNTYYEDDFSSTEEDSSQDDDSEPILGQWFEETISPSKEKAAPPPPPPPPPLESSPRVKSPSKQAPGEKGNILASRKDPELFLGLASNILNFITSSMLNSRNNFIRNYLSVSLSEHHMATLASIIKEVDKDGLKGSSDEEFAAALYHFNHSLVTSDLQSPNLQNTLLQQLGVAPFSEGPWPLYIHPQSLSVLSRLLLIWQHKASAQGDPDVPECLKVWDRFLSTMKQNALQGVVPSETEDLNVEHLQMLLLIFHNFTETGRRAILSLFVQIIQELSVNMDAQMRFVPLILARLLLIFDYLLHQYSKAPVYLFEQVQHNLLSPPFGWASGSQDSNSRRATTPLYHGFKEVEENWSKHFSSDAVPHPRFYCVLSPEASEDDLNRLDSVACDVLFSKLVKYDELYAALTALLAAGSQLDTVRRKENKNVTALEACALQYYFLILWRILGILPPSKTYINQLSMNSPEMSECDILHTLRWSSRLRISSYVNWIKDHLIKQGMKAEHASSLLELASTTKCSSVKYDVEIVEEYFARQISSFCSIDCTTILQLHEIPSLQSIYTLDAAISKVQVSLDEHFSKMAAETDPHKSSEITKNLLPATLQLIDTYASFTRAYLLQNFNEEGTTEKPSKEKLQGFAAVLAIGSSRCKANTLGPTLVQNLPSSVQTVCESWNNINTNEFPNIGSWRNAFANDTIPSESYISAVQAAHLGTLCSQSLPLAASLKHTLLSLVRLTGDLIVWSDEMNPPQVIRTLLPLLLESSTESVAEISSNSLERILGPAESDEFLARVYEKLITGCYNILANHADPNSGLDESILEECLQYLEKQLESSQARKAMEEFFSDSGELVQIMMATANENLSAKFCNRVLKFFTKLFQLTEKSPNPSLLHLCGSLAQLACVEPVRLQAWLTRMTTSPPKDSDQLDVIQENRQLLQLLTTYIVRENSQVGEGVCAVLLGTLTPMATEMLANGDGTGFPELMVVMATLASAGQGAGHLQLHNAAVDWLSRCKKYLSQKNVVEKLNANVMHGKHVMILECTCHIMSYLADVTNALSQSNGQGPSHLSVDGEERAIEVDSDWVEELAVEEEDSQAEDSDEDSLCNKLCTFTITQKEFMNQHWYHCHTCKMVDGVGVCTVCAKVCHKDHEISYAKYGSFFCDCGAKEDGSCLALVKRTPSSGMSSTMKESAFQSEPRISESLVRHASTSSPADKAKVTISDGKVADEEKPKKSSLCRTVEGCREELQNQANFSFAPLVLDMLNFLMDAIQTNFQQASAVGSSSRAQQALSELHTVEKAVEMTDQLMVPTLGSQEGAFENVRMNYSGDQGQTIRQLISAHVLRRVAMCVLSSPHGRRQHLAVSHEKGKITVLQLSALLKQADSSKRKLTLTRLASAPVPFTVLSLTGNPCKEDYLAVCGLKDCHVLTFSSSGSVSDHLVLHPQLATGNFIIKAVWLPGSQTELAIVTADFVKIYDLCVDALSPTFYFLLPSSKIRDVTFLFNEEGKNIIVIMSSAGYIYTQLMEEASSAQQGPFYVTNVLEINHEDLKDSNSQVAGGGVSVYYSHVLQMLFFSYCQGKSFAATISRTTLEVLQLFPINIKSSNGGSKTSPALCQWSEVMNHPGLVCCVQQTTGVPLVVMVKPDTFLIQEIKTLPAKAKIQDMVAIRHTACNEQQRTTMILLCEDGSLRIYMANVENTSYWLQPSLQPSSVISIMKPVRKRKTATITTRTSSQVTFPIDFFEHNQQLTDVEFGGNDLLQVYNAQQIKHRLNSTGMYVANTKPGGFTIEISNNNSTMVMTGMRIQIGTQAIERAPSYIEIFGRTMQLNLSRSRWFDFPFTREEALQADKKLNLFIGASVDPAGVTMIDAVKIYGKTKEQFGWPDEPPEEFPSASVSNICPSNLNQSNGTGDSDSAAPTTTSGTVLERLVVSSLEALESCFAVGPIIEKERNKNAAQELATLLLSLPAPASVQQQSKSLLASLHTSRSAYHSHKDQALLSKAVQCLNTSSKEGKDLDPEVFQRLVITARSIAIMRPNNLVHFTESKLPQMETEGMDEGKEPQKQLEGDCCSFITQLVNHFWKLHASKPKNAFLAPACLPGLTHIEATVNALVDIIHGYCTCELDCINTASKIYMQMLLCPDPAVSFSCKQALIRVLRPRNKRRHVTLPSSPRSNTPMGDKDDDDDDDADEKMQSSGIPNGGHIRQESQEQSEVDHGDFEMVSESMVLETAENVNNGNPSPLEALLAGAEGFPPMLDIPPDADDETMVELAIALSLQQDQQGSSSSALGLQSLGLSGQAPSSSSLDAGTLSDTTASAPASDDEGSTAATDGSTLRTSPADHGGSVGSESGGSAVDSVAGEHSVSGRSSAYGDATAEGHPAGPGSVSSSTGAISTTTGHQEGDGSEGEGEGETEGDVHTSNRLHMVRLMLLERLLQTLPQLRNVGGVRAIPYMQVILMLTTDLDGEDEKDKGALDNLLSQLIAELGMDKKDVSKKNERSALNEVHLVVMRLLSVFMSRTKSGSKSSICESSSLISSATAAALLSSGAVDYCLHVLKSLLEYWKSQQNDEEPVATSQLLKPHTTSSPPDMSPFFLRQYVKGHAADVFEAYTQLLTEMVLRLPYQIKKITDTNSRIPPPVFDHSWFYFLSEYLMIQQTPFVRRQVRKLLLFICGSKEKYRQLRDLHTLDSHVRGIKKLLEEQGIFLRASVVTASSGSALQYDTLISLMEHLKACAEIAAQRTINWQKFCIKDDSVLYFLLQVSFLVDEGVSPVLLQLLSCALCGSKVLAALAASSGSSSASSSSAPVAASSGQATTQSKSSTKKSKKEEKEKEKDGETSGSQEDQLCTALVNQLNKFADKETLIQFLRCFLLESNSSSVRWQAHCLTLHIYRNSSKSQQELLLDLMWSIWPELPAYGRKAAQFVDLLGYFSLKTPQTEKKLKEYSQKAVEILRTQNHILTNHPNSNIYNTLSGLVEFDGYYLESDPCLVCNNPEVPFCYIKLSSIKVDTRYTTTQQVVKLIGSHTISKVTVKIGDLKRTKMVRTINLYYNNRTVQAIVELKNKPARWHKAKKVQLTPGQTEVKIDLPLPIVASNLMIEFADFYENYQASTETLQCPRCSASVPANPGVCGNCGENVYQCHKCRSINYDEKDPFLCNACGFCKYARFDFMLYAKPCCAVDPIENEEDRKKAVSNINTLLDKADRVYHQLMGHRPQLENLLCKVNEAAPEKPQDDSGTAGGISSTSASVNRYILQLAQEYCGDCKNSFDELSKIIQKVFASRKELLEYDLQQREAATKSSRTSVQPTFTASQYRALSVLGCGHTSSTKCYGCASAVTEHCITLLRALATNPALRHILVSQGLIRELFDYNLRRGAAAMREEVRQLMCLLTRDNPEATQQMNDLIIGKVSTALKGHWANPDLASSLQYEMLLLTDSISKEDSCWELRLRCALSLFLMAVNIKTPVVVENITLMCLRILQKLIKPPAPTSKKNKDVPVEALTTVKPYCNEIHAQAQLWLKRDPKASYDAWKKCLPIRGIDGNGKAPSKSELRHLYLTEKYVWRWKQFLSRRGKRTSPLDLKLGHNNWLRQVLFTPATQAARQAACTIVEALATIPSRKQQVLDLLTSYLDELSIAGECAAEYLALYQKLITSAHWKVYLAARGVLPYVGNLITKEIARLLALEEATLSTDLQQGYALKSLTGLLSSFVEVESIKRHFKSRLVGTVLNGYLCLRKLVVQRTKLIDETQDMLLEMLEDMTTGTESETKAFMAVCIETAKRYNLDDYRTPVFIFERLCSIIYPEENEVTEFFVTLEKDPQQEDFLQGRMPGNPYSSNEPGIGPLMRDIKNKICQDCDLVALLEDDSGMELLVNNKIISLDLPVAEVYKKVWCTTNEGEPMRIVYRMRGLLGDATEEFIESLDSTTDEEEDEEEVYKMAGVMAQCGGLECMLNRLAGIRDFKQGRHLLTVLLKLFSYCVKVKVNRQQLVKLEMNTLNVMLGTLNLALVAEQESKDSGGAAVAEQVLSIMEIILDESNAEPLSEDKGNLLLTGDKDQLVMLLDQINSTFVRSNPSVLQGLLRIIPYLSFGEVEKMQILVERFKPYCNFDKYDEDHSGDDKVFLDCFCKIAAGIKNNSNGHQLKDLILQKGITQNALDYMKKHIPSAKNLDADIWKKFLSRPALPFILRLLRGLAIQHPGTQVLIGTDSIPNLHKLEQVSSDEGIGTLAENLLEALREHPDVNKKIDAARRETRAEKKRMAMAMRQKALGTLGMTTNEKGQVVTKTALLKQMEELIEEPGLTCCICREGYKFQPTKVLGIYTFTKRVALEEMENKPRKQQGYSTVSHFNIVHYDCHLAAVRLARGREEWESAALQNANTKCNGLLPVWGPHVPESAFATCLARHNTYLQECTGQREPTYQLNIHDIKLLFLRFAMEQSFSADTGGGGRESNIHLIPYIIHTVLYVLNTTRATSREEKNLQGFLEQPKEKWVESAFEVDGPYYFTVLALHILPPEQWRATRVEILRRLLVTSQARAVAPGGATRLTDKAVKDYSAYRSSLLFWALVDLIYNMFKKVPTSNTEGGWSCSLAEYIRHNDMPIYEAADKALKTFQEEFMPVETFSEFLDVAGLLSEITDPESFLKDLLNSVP
UniProt Q7Z7L7: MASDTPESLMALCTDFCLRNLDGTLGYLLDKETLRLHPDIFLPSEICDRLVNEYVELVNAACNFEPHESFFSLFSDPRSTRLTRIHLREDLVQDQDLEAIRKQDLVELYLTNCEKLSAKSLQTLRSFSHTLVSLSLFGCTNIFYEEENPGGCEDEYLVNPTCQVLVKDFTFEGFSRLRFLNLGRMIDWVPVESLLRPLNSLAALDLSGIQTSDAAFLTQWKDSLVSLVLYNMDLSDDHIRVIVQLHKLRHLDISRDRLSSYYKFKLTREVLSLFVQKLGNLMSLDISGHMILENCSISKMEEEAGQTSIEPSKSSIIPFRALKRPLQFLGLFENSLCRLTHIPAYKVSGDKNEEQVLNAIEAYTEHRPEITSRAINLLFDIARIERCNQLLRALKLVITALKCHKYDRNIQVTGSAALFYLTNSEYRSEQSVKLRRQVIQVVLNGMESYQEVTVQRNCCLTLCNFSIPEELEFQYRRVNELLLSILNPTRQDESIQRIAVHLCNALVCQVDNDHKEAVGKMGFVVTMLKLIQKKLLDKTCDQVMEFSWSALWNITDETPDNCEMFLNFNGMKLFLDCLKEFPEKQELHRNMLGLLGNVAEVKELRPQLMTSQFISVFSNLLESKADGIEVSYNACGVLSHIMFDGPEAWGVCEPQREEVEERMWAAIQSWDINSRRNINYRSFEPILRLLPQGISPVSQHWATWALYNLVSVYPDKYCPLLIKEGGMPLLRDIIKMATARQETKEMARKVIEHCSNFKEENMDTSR

No constants are given. Whether binding was seen depends on the method and setting. Binding seen in cells or lysates may run through a third protein. Some entries that bind do so weakly or less than the wild type.

The target in experiment [1] is wild-type HPV16 E7-Flag-HA (HPV16) (UniProt P03129). Put plainly: SEC + co-IP; N/Tert-1 HPV16 E7-Flag-HA lysate (50 mM Tris pH 7.8, 150 mM NaCl, 0.5% NP-40) fractionated on Superose 6 10/300 GL; even-numbered 500-uL fractions subjected to anti-HA immunoprecipitation and Western blot. For orientation: In western blotting, separated proteins are transferred to a membrane and probed.

Experiment [2] has the same target. Put plainly: co-IP; anti-HA agarose immunoprecipitation of tagged E7 from lysates of stable N/Tert-1 keratinocytes, Western blot of endogenous partners.
The target in experiment [3] is wild-type HPV18 E7-Flag-HA (HPV18) (UniProt P06788). The experiment is described as above.
Experiment [4] deals with wild-type HPV16 E7-Flag-HA (HPV16) (UniProt P03129). In words: co-IP; anti-HA or control IgG immunoprecipitation from lysates of SiHa, Caski, HeLa and C33A cells stably expressing HPV16 E7-Flag-HA, Western blot for ZER1.
Experiment [5] shares this target. Put plainly: co-IP; anti-HA agarose immunoprecipitation of tagged E7 from lysates of stable N/Tert-1 keratinocytes, Western blot of endogenous partners. The source holds these as a separate data set.

On to “ubiquitin ligase UBR4 (from UniProt Q5T4S7 1-5183)”, for which the binding result in experiment [1] is given as “binds”.
On to ZER1 (from UniProt Q7Z7L7 1-766), for which the binding result is recorded as “binds” in experiment [2], “no binding” in experiment [3], “binds” in experiment [4] and “binds” in experiment [1].

B1: retinoblastoma tumor suppressor (RB1) (protein, UniProt P06400 1-928)
chain: MPPKTPRKTAATAAAAAAEPPAPPPPPPPEEDPEQDSGPEDLPLVRLEFEETEEPDFTALCQKLKIPDHVRERAWLTWEKVSSVDGVLGGYIQKKKELWGICIFIAAVDLDEMSFTFTELQKNIEISVHKFFNLLKEIDTSTKVDNAMSRLLKKYDVLFALFSKLERTCELIYLTQPSSSISTEINSALVLKVSWITFLLAKGEVLQMEDDLVISFQLMLCVLDYFIKLSPPMLLKEPYKTAVIPINGSPRTPRRGQNRSARIAKQLENDTRIIEVLCKEHECNIDEVKNVYFKNFIPFMNSLGLVTSNGLPEVENLSKRYEEIYLKNKDLDARLFLDHDKTLQTDSIDSFETQRTPRKSNLDEEVNVIPPHTPVRTVMNTIQQLMMILNSASDQPSENLISYFNNCTVNPKESILKRVKDIGYIFKEKFAKAVGQGCVEIGSQRYKLGVRLYYRVMESMLKSEEERLSIQNFSKLLNDNIFHMSLLACALEVVMATYSRSTSQNLDSGTDLSFPWILNVLNLKAFDFYKVIESFIKAEGNLTREMIKHLERCEHRIMESLAWLSDSPLFDLIKQSKDREGPTDHLESACPLNLPLQNNHTAADMYLSPVRSPKKKGSTTRVNSTANAETQATSAFQTQKPLKSTSLSLFYKKVYRLAYLRLNTLCERLLSEHPELEHIIWTLFQHTLQNEYELMRDRHLDQIMMCSMYGICKVKNIDLKFKIIVTAYKDLPHAVQETFKRVLIKEEEYDSIIVFYNSVFMQRLKTNILQYASTRPPTLSPIPHIPRSPYKFPSSPLRIPGGNIYISPLKSPYKISEGLPTPTKMTPRSRILVSIGESFGTSEKFQKINQMVCNSDRVLKRSAEGSNPPKPLKKLRFDIEGSDEADGSKHLPGESKFQQKLAEMTSTRTRMQKQKMNDSMDTSNKEEK
In the case of B1, the binding result in experiment [5] and in experiment [1] was “binds” throughout.
